Each structure is given as a SMILES string. The whole screen tested about 75,000 compounds, of which about 35 (0.05%) were called active. Calls follow the shape of the dose curve; as a rule, active = well fitted inhibition curve with a large enough effect; inconclusive = small, poorly fitted or top-dose-only effect; inactive = no such curve, though single readings can be large or run the other way. The entries are a selection whose mix differs from that of the whole data set.
Potency is read from the fitted curve at half-maximal effect.

Sequence of UniProt P38398 (P38398 whole entry, looked up): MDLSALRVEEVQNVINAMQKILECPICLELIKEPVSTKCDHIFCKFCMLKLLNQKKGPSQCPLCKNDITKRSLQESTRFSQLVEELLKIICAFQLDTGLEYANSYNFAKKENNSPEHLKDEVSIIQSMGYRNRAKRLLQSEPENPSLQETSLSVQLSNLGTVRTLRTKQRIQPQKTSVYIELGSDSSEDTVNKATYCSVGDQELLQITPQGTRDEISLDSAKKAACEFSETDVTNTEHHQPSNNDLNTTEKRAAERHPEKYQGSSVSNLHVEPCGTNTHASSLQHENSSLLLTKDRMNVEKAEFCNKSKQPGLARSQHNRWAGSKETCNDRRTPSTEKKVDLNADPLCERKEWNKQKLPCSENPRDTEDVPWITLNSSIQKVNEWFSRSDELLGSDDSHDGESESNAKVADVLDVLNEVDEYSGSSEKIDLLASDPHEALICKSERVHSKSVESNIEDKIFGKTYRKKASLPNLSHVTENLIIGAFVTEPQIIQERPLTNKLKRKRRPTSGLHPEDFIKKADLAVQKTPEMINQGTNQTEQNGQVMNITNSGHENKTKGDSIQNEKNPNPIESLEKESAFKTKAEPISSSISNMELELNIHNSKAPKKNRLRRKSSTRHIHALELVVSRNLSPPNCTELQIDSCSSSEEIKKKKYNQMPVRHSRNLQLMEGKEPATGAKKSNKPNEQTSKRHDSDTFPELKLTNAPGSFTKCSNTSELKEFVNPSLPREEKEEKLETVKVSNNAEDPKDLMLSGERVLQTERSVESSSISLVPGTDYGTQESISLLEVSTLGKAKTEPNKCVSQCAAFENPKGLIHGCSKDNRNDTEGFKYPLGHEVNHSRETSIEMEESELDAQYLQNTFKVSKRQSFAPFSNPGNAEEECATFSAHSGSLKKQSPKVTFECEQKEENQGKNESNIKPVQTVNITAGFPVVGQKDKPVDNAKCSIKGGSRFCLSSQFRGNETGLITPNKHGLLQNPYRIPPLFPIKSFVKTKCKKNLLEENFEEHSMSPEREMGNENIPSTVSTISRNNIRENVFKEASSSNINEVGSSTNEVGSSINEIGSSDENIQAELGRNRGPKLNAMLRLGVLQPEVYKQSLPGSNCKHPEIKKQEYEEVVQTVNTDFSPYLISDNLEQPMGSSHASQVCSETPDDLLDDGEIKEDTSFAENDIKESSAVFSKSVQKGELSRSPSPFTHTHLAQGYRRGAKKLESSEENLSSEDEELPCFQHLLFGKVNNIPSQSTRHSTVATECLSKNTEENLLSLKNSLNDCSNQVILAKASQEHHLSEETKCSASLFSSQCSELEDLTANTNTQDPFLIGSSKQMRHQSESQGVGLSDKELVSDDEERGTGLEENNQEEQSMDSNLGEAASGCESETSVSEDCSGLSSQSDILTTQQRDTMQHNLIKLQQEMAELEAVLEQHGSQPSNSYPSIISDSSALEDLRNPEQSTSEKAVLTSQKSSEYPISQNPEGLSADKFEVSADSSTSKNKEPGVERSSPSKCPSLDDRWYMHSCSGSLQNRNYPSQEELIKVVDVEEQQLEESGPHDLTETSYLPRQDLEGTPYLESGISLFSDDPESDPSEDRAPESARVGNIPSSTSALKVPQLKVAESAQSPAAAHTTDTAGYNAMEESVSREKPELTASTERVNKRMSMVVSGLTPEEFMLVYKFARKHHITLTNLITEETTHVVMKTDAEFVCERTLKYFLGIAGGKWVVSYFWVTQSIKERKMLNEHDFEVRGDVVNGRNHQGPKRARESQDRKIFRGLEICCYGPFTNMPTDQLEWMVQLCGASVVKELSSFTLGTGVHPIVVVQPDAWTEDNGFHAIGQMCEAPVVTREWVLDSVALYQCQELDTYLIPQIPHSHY

The target in the test is Breast cancer type 1 susceptibility protein (Homo sapiens) (UniProt P38398). Kind of test: qHTS Assay for Inhibitors of BRCT-Phosphoprotein Interaction (Green Fluorophore).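 As to activity change, negative = inhibition: plate controls were peptide without protein for full effect.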 The settings on record: BRCA1 BRCT-phosphopeptide binding, green fluorescence polarization; series mostly up to 76.9 µM; activity change, negative = inhibition: at the top concentration. The method, then:
NIH Molecular Libraries Screening Centers Network [MLSCN]
NIH Chemical Genomics Center [NCGC]
PI Name: Natarajan, Amarnath; University of Texas
A complex of BRCT (C-terminal portion of BRCA1, MW ~35 kDa, His-tagged) and fluorescently labeled pBACH1 phosphorylated 10 aa peptide fragment of BACH1, a helicase implicated in DNA repair, is incubated with library members. Inhibitors of BRCT-pBACH1 binding are detected by a decrease in the fluorescence polarization (FP) of the fluorophore. In order to minimize the effect of fluorescence artifacts and to increase the overall robustness of the screen, the compound library members were incubated in separate reactions with fluorescein labeled probe-protein complexes. Protein and labeled probes were supplied by Dr. Amarnath Natarajan, Department of Pharmacology and Toxicology, University of Texas Medical Branch Galveston, TX.
Assay Buffer: 16mM Na2HPO4, 4 mM NaH2PO4, 150 mM NaCl, 1 mM EDTA, 1 mM DTT, 0.02% NaN3, and 0.01% Tween 20 at pH 7.3.
100 nM labeled decapeptide/250 nM protein in columns 1, 2, 5 - 48. Titration of unlabeled decapeptide control (from 10 mM, then 1:2 dilution in duplicate) pin-transferred to column 2, rows 1 to 16. Column 1 is neutral.
Three uL of reagents were dispensed to 1536-well Greiner black solid-bottom plates. Compounds and controls (23 nL) were transferred
via Kalypsys PinTool. The plates were incubated for 12 min at room temperature, and then read on ViewLux (Perkin-Elmer) High throughput CCD imager using FITC for the fluorescein-labeled decapeptide probe polarization filter sets. During dispense, reagent bottles were kept submerged into 4 deg C water bath and all liquid lines were covered with aluminum foil to minimize probe and protein degradation. All screening operations were performed on a Kalypsys robotic system (Kalypsys, Inc., San Diego, CA) containing one RX-130 and two RX-90 anthropomorphic robotic arms. The timing and order of assay plates passing through the screening system were adjusted such that each compound library plate was assayed against the fluorescein- and rhodamine-labeled assay systems at immediately adjacent time points.
In general terms: qHTS replaces the single test concentration by a dilution series.
In the case of `CCCCc1ccc(C2C(C#N)=C(N)SC(N)=C2C#N)s1`, the “activity change, negative = inhibition” value is inactive: 47.6%.
As to `COc1ccc(-n2nnnc2SCC(=O)c2cc3ccccc3o2)cc1`, the “activity change, negative = inhibition” value is inactive: 59%.
The same measure, in the same setting: in the case of `CCN(CC)c1ccc2cc(C(=O)Nc3ccc(-n4cnnn4)c(OC)c3)c(=O)oc2c1` it was inactive: 39.2%; in that of `COCCn1c(=O)c(-c2cc(F)cc(F)c2)nc2cnc(Nc3cccc(OC)c3)nc21`, inactive: 42.9%.
On to `CC(=O)OCCNc1cc(N2CCN(C)CC2)c2noc3c2c1C(=O)c1ccccc1-3`, for which the “activity change, negative = inhibition” value is inactive: 112%.
For `Cn1cc(C2=C(c3ccc(Cl)cc3Cl)C(=O)NC2=O)c2ccccc21`, the “activity change, negative = inhibition” value was inactive: 66.6%.
Same read-out and setting: in the case of `Cc1cc(C(=O)Nc2sc(C)c(C)c2C#N)c(C)o1` it was inactive: 58.4%; in that of `COc1ccc(Oc2ncc3nc(-c4cccs4)c(=O)n(CCC#N)c3n2)cc1`, inactive: 56.3%; in that of `CCOc1ccc2nc(NS(=O)(=O)c3ccc4c(c3)n(C)c(=O)n4C)sc2c1`, inactive: 58.8%.
Consider `Cc1cc(-c2ccc(N=Nc3ccc4c(S(=O)(=O)O)cc(S(=O)(=O)O)c(N)c4c3O)c(C)c2)ccc1N=Nc1ccc2c(S(=O)(=O)O)cc(S(=O)(=O)O)c(N)c2c1O`, for which the Potency was active: 31.6 µM.
In the case of `COC(=O)Cn1cnc2c(nnn2-c2cccc(Cl)c2)c1=O`, the “activity change, negative = inhibition” value is inactive: 49.3%.
On the same count and under the same terms, as for `COc1cccc(Nc2ncc3nc(CCc4ccccc4)c(=O)n(C4CC4)c3n2)c1`, the figure is inactive: 42.1%; as for `COc1ccccc1-c1nc(C(N)=O)c2[nH]c(=O)n(-c3cccc(C)c3)c2n1`, inactive: 32.3%; as for `N#CCCn1c(=O)c(CCc2ccccc2)nc2cnc(Nc3ccccc3)nc21`, inactive: 30.6%.
Same read-out and setting: in the case of `Cc1ccc(C2C3CSCC=C3C(C#N)=C(N)C2(C#N)C#N)cc1` (centres undefined) it was inactive: 35%.
As to `C/C(=N\NC(=O)c1ccncc1)c1ccc2ccccc2c1O`, the activity change, negative = inhibition is inactive: 146% [at 15.4 µM].
Same read-out and setting: in the case of `Fc1ccc(Br)cc1C1C=C(c2ccc(Br)s2)Nc2ncnn21` (centres undefined) it was inactive: 30.9%.
The same measure, in the same setting: as for `CCNc1ncc2nc(CCc3ccccc3)c(=O)n(Cc3ccc(F)cc3)c2n1`, the figure is inactive: 44.2%; as for `Cc1coc(NC(=O)CSc2nc(-c3ccncc3)cc(C(F)(F)F)c2C#N)n1`, inactive: 4.93%.
Consider `O=C(O)c1ccccc1-c1ccc(/C=c2\sc3nc4cc(Br)cnc4n3c2=O)o1`, for which the “activity change, negative = inhibition” value is inactive: 45%.
On the same count and under the same terms, in the case of `CCOC(=O)c1sc(N)c(C#N)c1COC(=O)CNC(=O)c1ccccc1` it was inactive: 54%.
On the same count and under the same terms, in the case of `N#C/C(=C\NC(=S)c1ccncc1)c1nc2ccccc2s1` it was inactive: 44.9% [at 15.4 µM].
Still for that read-out and setting: as for `CCNc1ncc2nc(-c3cc(F)cc(F)c3)c(=O)n(-c3ccccc3)c2n1`, the figure is inactive: 73%.
On to `COc1ccc(-n2c(=O)c(-c3cccs3)nc3cnc(Nc4ccccc4)nc32)cc1`, for which the “activity change, negative = inhibition” value is inactive: 80.5%.
The same measure, in the same setting: as for `COc1ccc(-c2nc3cnc(N(C)C)nc3n(-c3ccccc3)c2=O)cc1`, the figure is inactive: 47.3%; as for `N#CC1=C(N)Oc2c(sc3ccccc23)C1c1ccco1` (centres undefined), inactive: 32.7%; as for `COc1cccc(Oc2ccc(N)cn2)c1`, inactive: 58.5%.
Regarding `Cc1csc(SCC(=O)c2ccc(S(=O)(=O)N3CCOCC3)cc2)n1`, the “activity change, negative = inhibition” value is inactive: 38.5%.
On the same count and under the same terms, in the case of `COc1ccc(-c2cc(C(F)(F)F)nc(SCC(=O)N3CCOCC3)n2)cc1OC` it was inactive: 0.461%; in that of `CC(=O)c1c(O)c(C)c(O)c2c1OC1=CC(=O)C(C(C)=O)C(=O)[C@@]12C` (some centres undefined), inactive: 87.6%.
Consider `c1coc(-c2nc(-c3ccco3)c(-c3ccco3)nc2-c2ccco2)c1`, for which the Potency was active: 12.6 µM.
On to `N#CC1=C(SCC(=O)c2cc3ccccc3oc2=O)NC(=O)C(C#N)C12CCCC2` (centres undefined), for which the “activity change, negative = inhibition” value was inactive: 91.2%.
With `CN(c1ccccc1)c1ccc(/C=c2\s/c(=C(/C#N)C(=O)C(C)(C)C)n(Cc3ccco3)c2=O)cc1`, the “activity change, negative = inhibition” value was inactive: 94%.
Still for that read-out and setting: as for `N=c1c2c(-c3ccccc3)c(-c3ccccc3)n(Cc3ccco3)c2ncn1Cc1ccco1`, the figure is inactive: 60.5%.
With `O=C(O)/C=C\c1c2ccc(=O)c(O)c-2oc2c(O)c(O)ccc12`, the Potency is active: 6.31 µM.
Consider `COC(=O)c1ccc(CSc2nc3c(c(=O)n2-c2ccccc2)SCC3)o1`, for which the “activity change, negative = inhibition” value is inactive: 47.9%.
In the case of `O=c1cnc2cnc(N3CCOCC3)nc2n1Cc1ccc(F)cc1`, the “activity change, negative = inhibition” value was inactive: 42%.
Same read-out and setting: as for `COc1ccc(-c2nc3cnc(N4CCN(C)CC4)nc3n(Cc3cccs3)c2=O)cc1`, the figure is inactive: 37.5%.
Take `COCCn1c(=O)c(-c2ccc(OC)cc2)nc2cnc(Nc3cccc(OC)c3)nc21`: the “activity change, negative = inhibition” value was inactive: 31.6%.
Regarding `CCOC(=O)CCSc1nc(C)cc(C(F)(F)F)c1C#N`, the “activity change, negative = inhibition” value was inactive: 43.3%.
On to `CN(Cc1ccco1)c1ncnc2ccc(-c3ccccc3Cl)cc12`, for which the “activity change, negative = inhibition” value is inactive: 36.5%.
Take `CC1CCN(c2nc3ccccc3nc2C(C#N)S(=O)(=O)c2ccccc2)CC1` (centres undefined): the “activity change, negative = inhibition” value is inactive: 47.6%.
Still for that read-out and setting: in the case of `CCOC(=O)C1=C(C)N=c2s/c(=C\c3cccn3C)c(=O)n2C1c1cccc(OC)c1OC` (centres undefined) it was inactive: 33.1%; in that of `CCN(CC)c1ccc2oc(=O)c(C)nc2c1`, inactive: 64.4%.
Consider `N=C(N)c1ccc(OCCCCCOc2ccc(C(=N)N)cc2)cc1`, for which the Potency entry is “inactive”.
Regarding `Cc1ccc(C2C(C#N)=C(N)SC(N)=C2C#N)c(C)c1`, the “activity change, negative = inhibition” value is inactive: 57.7%.
Still for that read-out and setting: in the case of `CC(=O)C1=C(O)C=C2Oc3c(C(C)=O)c(O)c(C)c(O)c3[C@]2(C)C1=O` it was inactive: 30.4%; in that of `N#Cc1c(C(F)(F)F)cc(-c2ccccc2)nc1SCc1nc(N)nc(N2CCOCC2)n1`, inactive: 50%.
Still for that read-out and setting: as for `C=CCn1c(=O)/c(=C/c2cc(OC)c(OC)c(OC)c2)s/c1=C(/C#N)c1nc2ccccc2n1C`, the figure is inactive: 40.5%; as for `O=C(Nc1ccc(-c2nc3ccccc3o2)c(O)c1)c1cc(-n2cnnc2)ccc1Cl`, inactive: 36.8%; as for `CN(C)c1ccc(/C=C/C(O)=C2/C(=O)N(C)C3(C)CC2c2ccccc2O3)cc1` (centres undefined), inactive: 36.5%.
As for `CCOC(=O)c1ccc(NCn2c(=O)oc3ccccc32)cc1`, the “activity change, negative = inhibition” value was inactive: 40.1%.
Still for that read-out and setting: as for `COc1ccc(/C=C/C(=O)c2cccs2)c(OC)c1`, the figure is inactive: 37%.
With `N#CC1=C(N)SC(N)=C(C#N)C1CCC1CCCCC1`, the “activity change, negative = inhibition” value is inactive: 90.3%.

The record behind these values is PubChem BioAssay AID875 (National Center for Advancing Translational Sciences (NCATS), 2007).
